Over roughly 33,000 sequences, “E-score (dimensionless, -0.5 to 0.5)” has its median near -0.058; the highest 2% begin near 0.35. The list shows a part of the results.
Tested on: MvaT
Test: PBM 8-mer E-score (mean of HK and ME arrays) (E-score (dimensionless, -0.5 to 0.5)); higher = stronger relative binding preference; most listed sequences are background and not binding sites
Summary of the method: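 Full-length P. aeruginosa MvaT, with glutathione S-transferase fused to its N-terminus (cloned into pTH6838 by isothermal assembly), was tested by protein binding microarray using a previously described protocol. Two universal double-stranded 60-mer arrays (ME and HK) were used, each with a constant 25-mer primer region and a variable 35-mer region covering all 8-mers. The rank-based 8-mer E-score (-0.5 to 0.5) is the mean of the two arrays, parsed with a custom Python script.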

Sequence	PBM 8-mer E-score
ACTCAATA	0.222
GAATCGAA	0.174
CATGTACG	-0.0455
CAGTCAGC	-0.0796
CTTCAAAA	0.169
AAAATGGA	-0.00662
ATAGTATA	0.38
AATAGGAC	-0.0549
AATCGTAC	-0.0592
GCTTTATA	0.207
GCAATAAC	0.138
GACCGACA	0.0473
AATGTATA	0.366
GCATGGAA	-0.131
CAGCGTTC	-0.186
ACACCGAA	-0.0354
AGCGTCTA	0.00422
GTCCGTCA	-0.153
AGAAACCT	-0.0335
ACGTGACA	-0.00736
ACTGGACA	-0.0714
GACCGAGC	-0.253
ACTACTCT	0.113
GCAGGAAA	0.0142
TGATGAAA	0.0196

Sequence	PBM 8-mer E-score
GTGCGAGA	0.0328
CGGTCGAG	-0.192
CTCTCTCC	-0.0794
CCGGTAGC	-0.144
CTCAGTTA	0.106
CGAAGAAC	-0.157
AGTCTCTA	-0.00977
AATTAGTA	0.384
ATTGCACG	0.182
CTCCCTGC	-0.353
ACACCTCG	0.0162
GAGGACGA	-0.332
ATGCGGTG	0.0441
CCTTGAAA	-0.0973
GAACCATA	0.114
AAGGCACT	-0.132
TGAGACAA	0.0145
TGAGTACA	0.063
ATAAGCAA	0.214
CCATTGCG	-0.171
CCCTATGA	-0.138
CTCATTAA	0.196
TCATTGGA	-0.0649
CCATCGGG	-0.336
AGGTGCAG	-0.248

Sequence	PBM 8-mer E-score
AGTTGTGC	0.0313
CCGATTCC	-0.181
GGCTGGTA	-0.0575
GAATTCTC	0.0201
AGAGCCCA	-0.156
GATCCACC	-0.131
AACGTGGT	-0.121
ATACTGGC	-0.0191
GAAAGCCC	-0.331
ATGAAGAA	0.111
GCTCATAC	-0.145
CCAGTATA	0.0458
CCTTAAAA	0.0816
ATCCATAG	-0.0748
AGTCTATG	0.142
ATCAAGCA	0.0739
TATGACGA	0.123
CTGCGGTC	-0.29
AGGACGCG	-0.171
CACGACCG	-0.161
AGCTCGCG	-0.171
ACGCCGAG	-0.173
GAGTCGGA	-0.113
GGTGCAAC	-0.14
ACAAGTTA	0.338

Sequence	PBM 8-mer E-score
ACGTCTGC	-0.211
AAAAGACG	0.148
ATTATCTC	0.157
CAGTAGAG	-0.108
CTGGCAAG	-0.117
AGCTTATG	0.045
ATTGTTAC	0.192
CGGTTCGA	-0.108
AGAGCCGG	-0.212
TAAGGAAA	0.184
CCTGGTGA	-0.262
AAGTGACT	0.00519
AACCCGAC	-0.155
CAATCTCC	-0.109
CGGGCGGC	-0.242
GCCAGAGC	-0.213
GGCGCAAA	0.0382
AGCCCAAA	-0.0757
CCCGCCAA	-0.221
AAACTCAA	0.17
CGAAGCGA	-0.121
ATGTTTCC	0.125
CGTGGGTC	-0.286
AGAGGGAC	-0.267
ACAGCAGT	-0.0577

Sequence	PBM 8-mer E-score
ACCAAAGG	-0.0363
CGTTTTAA	0.23
GCGCGGAC	-0.278
GTAATTTA	0.388
CCCTGGTC	-0.267
CCCAATGC	-0.147
ACCTGAAT	0.0683
CGGATGGC	-0.274
ACATTTTA	0.309
GCGTTCGA	-0.085
CTAGATTC	-0.154
CTAACTCA	0.084
ATCGAACA	0.0838
AACGGTTG	0.0528
ATTCGGGC	-0.0943
CTACTCAC	-0.0655
ACTCCACA	0.0902
AAAGTGAA	0.107
AGACGGAA	-0.184
ACGAATTA	0.256
TCCCTAAA	-0.0867
GAGTATAA	0.273
ACACTACG	-0.101
CAATTGTC	-0.0513
AGTGTCGA	-0.0257

Sequence	PBM 8-mer E-score
GACTTATA	0.312
GCATTGTA	0.129
ATCTCGGA	0.0606
AAATGCGA	0.0325
CGGGCTTC	-0.156
ACAGGAAC	-0.0162
TTCATAAA	0.238
GGCGACGA	-0.0969
CCGCCTCG	-0.207
ACCCACGG	-0.125
AGGTTGTA	0.172
ACGTGGCA	-0.131
TCTGTTCA	-0.0142
CTATAGGA	-0.0735
ATCCTCCA	-0.167
ACGACTAC	-0.0594
GCTGTGAC	-0.182
CGATTGAG	-0.0913
ACTATGAG	0.0273
GAATTATA	0.374
CTACTACA	0.0609
CAACAGTG	-0.069
ACACCCCA	-0.231
GGAAGAAC	-0.162
AATGTCGA	0.00125

Sequence	PBM 8-mer E-score
CGTTCGAG	-0.179
ACCACGGC	-0.133
CGACGACA	-0.0109
AGGAGTCA	-0.22
GCAATACC	0.186
CCTAAGCG	-0.313
GCTGGTGA	-0.107
GCGACCTA	-0.0985
AGGACAAC	-0.0385
ATAAAAGG	0.119
GAAATTTA	0.227
AGTCCAAG	0.0301
TCTATTAA	0.285
GGAAAGAC	-0.0634
TCATCCGA	-0.0994
CCTCCAAC	-0.207
ACGATATA	0.328
CACAGAAG	-0.0636
ACATGCTC	-0.105
ATATAAGC	0.311
TAATGGGA	0.0668
TAGCAGCA	-0.0705

— the supplement of paper PMC4466236
